Test results: PubChem BioAssay AID624296 (National Center for Advancing Translational Sciences (NCATS), 2012)
Out of some 350,000 compounds screened, about 9,900 (2.8%) were called active. This list was built around the results that the source calls inconclusive (neither active nor inactive); the mix of calls is not that of the screen. The call rests on the fitted dose curve; in most records, active means well fitted activation curve with a large enough effect; inconclusive means small, poorly fitted or top-dose-only effect; inactive means no such curve, though single readings can be large or run the other way. No potency is given beside an inconclusive call; the fits are too rough.

Assay: A quantitative high throughput screen for small molecules that induce DNA re-replication in MCF 10a normal breast cells. Further: nearly all actives have a fitted effect of over 50% in size.
Details: MCF 10A DNA re-replication, Hoechst nuclear intensity, 48 h; series mostly up to 46.1 µM
Potency means the concentration at half of the fitted maximal effect; tags describe the fitted curve by direction and shape.

Compound | Potency
CCN(C[C@H]1N[C@@](C)(C(=O)OC)[C@H]2C(=O)N(Cc3ccccc3)C(=O)[C@@H]12)C(=O)Nc1ccc(Cl)cc1 | inconclusive [activator, single point]
S=c1[nH]nc(COc2ccccc2)n1/N=C/c1ccc(Cl)cc1 | inconclusive [activator, single point]
Cc1cccc(OCC(O)Cn2c(=N)n(Cc3ccccc3)c3ccccc32)c1 (stereo unspecified) | inactive
CC(NC(=O)c1cccc(S(=O)(=O)N2CCN(Cc3ccccc3)CC2)c1)c1ccc(Br)cc1 (stereo unspecified) | inconclusive [activator, partial curve, poor fit]
CCc1ccc2[nH]c(=O)c(CN(CCCN3CCOCC3)C(=O)Nc3cccc(Cl)c3)cc2c1 | inconclusive [activator, single point]
CCOC(=O)C1CCCN(C(=O)Cc2ccc(OC)c(OC)c2)C1 (stereo unspecified) | inactive
O=C(c1ccccc1Oc1ccc(C(F)(F)F)cc1[N+](=O)[O-])N1CCOCC1 | inactive
CCOc1ccc(C2NCCc3cc(OC)c(OC)cc32)cc1OC (stereo unspecified) | inconclusive [activator, single point]
CCOC(=O)N1CCc2c(sc3ncn(C)c(=O)c23)C1 | inconclusive [activator, single point]
COc1ccc(Nc2nnc(SCC(=O)c3cc4ccccc4o3)s2)cc1 | inconclusive [activator, single point]
CCOc1ccc2nc(NC(=O)CSc3nc(-c4ccccc4)c(C#N)c(=O)[nH]3)sc2c1 | inconclusive [activator, partial curve, poor fit]
Cc1nc(NCc2ccco2)c2oc3ccccc3c2n1 | inconclusive [activator, single point]
CCc1ccc(OCC(=O)NC(NC(=S)Nc2ccccc2)C(Cl)(Cl)Cl)cc1 (stereo unspecified) | inconclusive [activator, single point]
COc1cc(/C=C2\SC(=Nc3ccccc3)NC2=O)cc(Cl)c1O | active: 20.6 µM
CCCCC(=O)NC(NC(=S)N1CCCCCC1)C(Cl)(Cl)Cl (stereo unspecified) | inconclusive [activator, partial curve, poor fit]
O=C(CN1CCN(c2nc(-c3ccccc3)cs2)CC1)NCc1ccc2c(c1)OCO2 | active: 11.6 µM
CCOC(=O)N1CCN(c2ccc(C(=O)c3ccccc3)cc2F)CC1 | inconclusive [activator, single point]
COc1ccccc1NC(=O)CSc1nnc(-c2ccncc2)o1 | inconclusive [activator, partial curve, poor fit]
COc1ccc(CCNC(=O)c2cc(-c3cc(Cl)cc(Cl)c3)oc2C)cc1 | inconclusive [activator, partial curve, poor fit]
CC(NCC(O)COc1ccc2ccccc2c1)c1ccccc1 (stereo unspecified) | inconclusive [activator, single point]
COc1ccc(OC)c(S(=O)(=O)N2CCN(C34CC5CC(CC(C5)C3)C4)CC2)c1 | inconclusive [activator, full curve]
CCCc1nnc(NC(=O)CSc2nnc(-c3ccco3)n2C)s1 | inactive

Compound | Potency
C=CCNC(=O)COC(=O)c1cccnc1Nc1ccccc1F | inactive
CCN1C(=O)c2cccc3cccc1c23 | inconclusive [activator, single point]
Cc1cc2cc(CCNC(=O)c3ccc(Br)o3)c(=O)[nH]c2cc1C | inactive
CCNC(=O)COC(=O)c1ccc(NS(=O)(=O)c2ccc3c(c2)OCCO3)cc1 | inconclusive [activator, single point]
Cc1ccc(NC(=O)c2cccnc2)cc1S(=O)(=O)N(C)C | inconclusive [activator, partial curve, poor fit]
Fc1ccccc1N1CCN(C2CCN(Cc3c[nH]c4ccccc34)CC2)CC1 | inactive
CC1CCC(C(C)C)C(OC(=O)Cn2nnc3c(cnn3-c3ccccc3)c2=O)C1 (stereo unspecified) | inconclusive [activator, partial curve, poor fit]
c1ccc(-n2c(-c3ccncc3)nnc2N2CCOCC2)cc1 | inconclusive [activator, partial curve, poor fit]
CSc1cccc(NC(=O)COC(=O)c2ccccn2)c1 | inconclusive [activator, partial curve, poor fit]
CCC1=NN(C(=O)COc2ccccc2)C(O)(c2ccc(Br)cc2)C1 (stereo unspecified) | inconclusive [activator, partial curve, poor fit]
C#CCOCCOCCOCCNc1nc(N2CCN(C(=O)C([C@@H](C)CC)n3cc(C(N)COC(=O)C(F)(F)F)nn3)CC2)nc(N2CCN(C(=O)C([C@@H](C)CC)n3cc(C(N)CC(C)C)nn3)CC2)n1 (stereo partly specified) | inactive
COC(=O)c1c(NC(=O)Cn2cnc([N+](=O)[O-])n2)sc2c1CCC(C)C2 (stereo unspecified) | inconclusive [activator, partial curve, poor fit]
O=S1(=O)N=C(N/N=C/c2ccccn2)c2ccccc21 | inconclusive [activator, partial curve, poor fit]
O=[N+]([O-])c1ccc(O)c(C2CCCCC2)c1 | inconclusive [activator, full curve, poor fit]
CC(C)N(CCNCC(O)COc1ccc(C(C)(C)c2ccccc2)cc1)C(C)C (stereo unspecified) | inconclusive [activator, partial curve]
COc1cc2c(C#N)c(N3CCc4ccccc4C3)nc(N)c2c(N)n1 | inconclusive [activator, single point]
CCN1CCN(c2nc3ccccc3nc2C(C#N)C(=O)OCc2ccccc2)CC1 (stereo unspecified) | inconclusive [activator, single point]
C(CCc1nn[nH]n1)CCC1CCCCC1 | inconclusive [activator, partial curve, poor fit]
Cc1nn(C)cc1-c1n[nH]c(=S)n1-c1ccc(F)cc1 | inactive
O=C(/C=C/c1ccco1)Nc1ccc2c(c1)OCCO2 | inactive
CCCCCCCCCCCC(=O)c1c(O)cccc1O | inconclusive [activator, partial curve, poor fit]
O=C(COc1ccc(Cl)cc1)NCc1cn2cc(Cl)ccc2n1 | inconclusive [activator, partial curve, poor fit]

Compound | Potency
COc1ccc(N(CC(=O)NC2CCCC2)C(=O)c2ccc(C)s2)cc1OC | inactive
O=C(CS(=O)(=O)Cc1ccccc1)N1CCN(c2cccc(C(F)(F)F)c2)CC1 | inactive
CSc1ccc2c(c1)C(N1CCN(C)CC1)Cc1ccc(F)cc1S2 (stereo unspecified) | inconclusive [activator, single point]
CCC(C)[C@H]1COCCS(=O)(=O)N1Cc1ccccc1 (stereo partly specified) | inconclusive [activator, partial curve, poor fit]
O=c1c2c3nc4ccccc4nc3n(/N=C/c3ccco3)c2ncn1CCC1=CCCCC1 | inconclusive [activator, single point]
O=C(NCCCCc1ccccc1)c1cccc(NC(=O)c2ccccc2)c1 | inconclusive [activator, single point]
O=C(Cc1ccc(-c2ccccc2)cc1)Nc1ccccc1 | inconclusive [activator, single point]
CC(=O)Nc1ccc(S(=O)(=O)O)c(OC(C)=O)c1 | inactive
COc1ccc(N2CCN(CC(=O)c3ccc(Cl)cc3)CC2)cc1 | active: 18.4 µM
Cc1ccccc1C(=O)NC(=S)Nc1ccc(N2CCOCC2)cc1 | inactive
Cc1ccc(S(=O)(=O)c2nc(Nc3ccccc3)sc2Cl)cc1 | inconclusive [activator, single point]
CC(CN1CCCCC1)OC(=O)C(C)(c1ccccc1)c1ccccc1 (stereo unspecified) | inconclusive [activator, partial curve, poor fit]
C=C1CCC2C(C)(C)[C@@H](O)CC[C@@]2(C)[C@@H]1COc1ccc2ccc(=O)oc2c1 (stereo partly specified) | inconclusive [activator, partial curve]
Cc1c[n+](CC(=O)c2ccccc2)cs1 | inconclusive [activator, full curve, poor fit]
COc1ccc(-c2nnc(-c3cc4c(ccc5ccccc54)oc3=O)o2)cc1 | inconclusive [activator, partial curve, poor fit]
CCN(CC(=O)Nc1c(F)cccc1F)C(=O)CSCC(=O)Nc1cccc(C)c1 | inactive
O=C(/C=C/c1ccc(Cl)c([N+](=O)[O-])c1)Nc1cccc(NC(=O)c2ccco2)c1 | inconclusive [activator, full curve, poor fit]
O=C(O)c1cc(-c2cccs2)nn1-c1cccc(Cl)c1 | inactive
O=c1c2cc(N3CCOCC3)ccc2[nH]c(=S)n1CCCN1CCCCC1 | inactive
COc1ccc(N2CCN(C(=O)CCc3ccccc3OC)CC2)cc1 | inconclusive [activator, single point]
CCOC(=O)c1c(NC(=O)C2c3ccccc3Oc3ccccc32)sc(C(N)=O)c1C | inconclusive [activator, partial curve, poor fit]
COc1ccc(Nc2nc(C)nc3c2oc2ccccc23)c(OC)c1 | active: 14.6 µM
